# According to the supplement of paper PMC8728848:
# Some of the results follow.
# B1: SRA-1 (Homo sapiens), P21757 (protein)
# chain: MEQWDHFHNQQEDTDSCSESVKFDARSMTALLPPNPKNSPSLQEKLKSFKAALIALYLLVFAVLIPLIGIVAAQLLKWETKNCSVSSTNANDITQSLTGKGNDSEEEMRFQEVFMEHMSNMEKRIQHILDMEANLMDTEHFQNFSMTTDQRFNDILLQLSTLFSSVQGHGNAIDEISKSLISLNTTLLDLQLNIENLNGKIQENTFKQQEEISKLEERVYNVSAEIMAMKEEQVHLEQEIKGEVKVLNNITNDLRLKDWEHSQTLRNITLIQGPPGPPGEKGDRGPTGESGPRGFPGPIGPPGLKGDRGAIGFPGSRGLPGYAGRPGNSGPKGQKGEKGSGNTLTPFTKVRLVGGSGPHEGRVEILHSGQWGTICDDRWEVRVGQVVCRSLGYPGVQAVHKAAHFGQGTGPIWLNEVFCFGRESSIEECKIRQWGTRACSHSEDAGVTCTL
# How the values were obtained:
# Assay in all cases: glycan array binding signal (z-score within array); higher = stronger binding
# Details in all cases: glycan notation: IUPAC condensed, linker removed
# [1] = biological target: Neu5Ac(a2-3)Gal(b1-3)GlcNAc(b1-2)Man
# How it was run: (§1)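 Negative Z-scores can be read as non-binding. The Z-score is calculated within each array and then averaged across arrays of one protein sequence at different concentrations or buffers and across linkers. Arrays, 3228 in all, were curated from the Consortium for Functional Glycomics database and kept only where the protein sequence was available.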
# [2] = biological target: Neu5Ac(a2-3)Gal(b1-3)GlcNAc(b1-2)Man(a1-3)[GlcNAc(b1-4)][Neu5Ac(a2-3)Gal(b1-3)GlcNAc(b1-2)Man(a1-6)]Man(b1-4)GlcNAc(b1-4)GlcNAc
# How it was run: as §1
# [3] = biological target: Neu5Ac(a2-3)Gal(b1-3)GlcNAc(b1-2)Man(a1-3)[Neu5Ac(a2-3)Gal(b1-3)GlcNAc(b1-2)Man(a1-6)]Man(b1-4)GlcNAc(b1-4)GlcNAc
# How it was run: as §1
# [4] = biological target: Neu5Ac(a2-3)Gal(b1-3)GlcNAc(b1-3)Gal(b1-3)GlcNAc
# How it was run: as §1
# [5] = biological target: Neu5Ac(a2-3)Gal(b1-3)GlcNAc(b1-3)Gal(b1-4)GlcNAc
# How it was run: as §1
# [6] = biological target: Neu5Ac(a2-3)Gal(b1-3)GlcNAc(b1-3)GalNAc
# How it was run: as §1
# [7] = biological target: Neu5Ac(a2-3)Gal(b1-3)GlcNAc(b1-4)Gal(b1-4)Glc
# How it was run: as §1
# [8] = biological target: Neu5Ac(a2-3)Gal(b1-3)GlcNAc(b1-6)GalNAc
# How it was run: as §1
# [9] = biological target: Neu5Ac(a2-3)Gal(b1-3)GlcNAc6S
# How it was run: as §1
# [10] = biological target: Neu5Ac(a2-3)Gal(b1-3)[Fuc(a1-4)]GlcNAc
# How it was run: as §1
# [11] = biological target: Neu5Ac(a2-3)Gal(b1-3)[Fuc(a1-4)]GlcNAc(b1-3)Gal(b1-3)[Fuc(a1-4)]GlcNAc
# How it was run: as §1
# [12] = biological target: Neu5Ac(a2-3)Gal(b1-3)[Fuc(a1-4)]GlcNAc(b1-3)Gal(b1-4)[Fuc(a1-3)]GlcNAc
# How it was run: as §1
# [13] = biological target: Neu5Ac(a2-3)Gal(b1-3)[GlcNAc(b1-6)]GalNAc
# How it was run: as §1
# [14] = biological target: Neu5Ac(a2-3)Gal(b1-3)[Neu5Ac(a2-6)]GalNAc
# How it was run: as §1
# [15] = biological target: Neu5Ac(a2-3)Gal(b1-3)[Neu5Ac(a2-6)]GlcNAc(b1-3)[Fuc(a1-3)[Gal(b1-4)]GlcNAc(b1-6)]Gal(b1-4)Glc
# How it was run: as §1
# [16] = biological target: Neu5Ac(a2-3)Gal(b1-3)]Neu5Ac(a2-3)Gal(b1-4)]GlcNAc
# How it was run: as §1
# Neu5Ac(a2-3)Gal(b1-4)Glc = biological target: Neu5Ac(a2-3)Gal(b1-4)Glc
# How it was run: as §1
# [17] = biological target: Neu5Ac(a2-3)Gal(b1-4)GlcNAc
# How it was run: as §1
# [18] = biological target: Neu5Ac(a2-3)Gal(b1-4)GlcNAc(b1-2)Man
# How it was run: as §1
# [19] = biological target: Neu5Ac(a2-3)Gal(b1-4)GlcNAc(b1-2)Man(a1-3)[GlcNAc(b1-4)][Neu5Ac(a2-3)Gal(b1-4)GlcNAc(b1-2)Man(a1-6)]Man(b1-4)GlcNAc(b1-4)GlcNAc
# How it was run: as §1
# [20] = biological target: Neu5Ac(a2-3)Gal(b1-4)GlcNAc(b1-2)Man(a1-3)[Neu5Ac(a2-3)Gal(b1-4)GlcNAc(b1-2)Man(a1-6)]Man(b1-4)GlcNAc(b1-4)GlcNAc
# How it was run: as §1
# [21] = biological target: Neu5Ac(a2-3)Gal(b1-4)GlcNAc(b1-2)Man(a1-3)[Neu5Ac(a2-3)Gal(b1-4)GlcNAc(b1-2)Man(a1-6)]Man(b1-4)GlcNAc(b1-4)[Fuc(a1-6)]GlcNAc
# How it was run: as §1
# [22] = biological target: Neu5Ac(a2-3)Gal(b1-4)GlcNAc(b1-2)Man(a1-3)[Neu5Ac(a2-6)Gal(b1-4)GlcNAc(b1-2)Man(a1-6)]Man(b1-4)GlcNAc(b1-4)GlcNAc
# How it was run: as §1
# [23] = biological target: Neu5Ac(a2-3)Gal(b1-4)GlcNAc(b1-2)[Neu5Ac(a2-3)Gal(b1-4)GlcNAc(b1-4)]Man(a1-3)[GlcNAc(b1-4)][Neu5Ac(a2-3)Gal(b1-4)GlcNAc(b1-2)[Neu5Ac(a2-3)Gal(b1-4)GlcNAc(b1-6)]Man(a1-6)]Man(b1-4)GlcNAc(b1-4)GlcNAc
# How it was run: as §1
# [24] = biological target: Neu5Ac(a2-3)Gal(b1-4)GlcNAc(b1-2)[Neu5Ac(a2-3)Gal(b1-4)GlcNAc(b1-4)]Man(a1-3)[GlcNAc(b1-4)][Neu5Ac(a2-3)Gal(b1-4)GlcNAc(b1-4)Man(a1-6)]Man(b1-4)GlcNAc(b1-4)GlcNAc
# How it was run: as §1
# [25] = biological target: Neu5Ac(a2-3)Gal(b1-4)GlcNAc(b1-2)[Neu5Ac(a2-3)Gal(b1-4)GlcNAc(b1-6)]Man(a1-6)[Neu5Ac(a2-3)Gal(b1-4)GlcNAc(b1-2)Man(a1-3)]Man(b1-4)GlcNAc(b1-4)GlcNAc
# How it was run: as §1
# [26] = biological target: Neu5Ac(a2-3)Gal(b1-4)GlcNAc(b1-2)[Neu5Ac(a2-3)Gal(b1-4)GlcNAc(b1-6)]Man(a1-6)[Neu5Ac(a2-3)Gal(b1-4)GlcNAc(b1-2)Man(a1-3)][GlcNAc(b1-4)]Man(b1-4)GlcNAc(b1-4)GlcNAc
# How it was run: as §1
# [27] = biological target: Neu5Ac(a2-3)Gal(b1-4)GlcNAc(b1-3)Gal
# How it was run: as §1
# [28] = biological target: Neu5Ac(a2-3)Gal(b1-4)GlcNAc(b1-3)Gal(b1-3)GlcNAc
# How it was run: as §1
# [29] = biological target: Neu5Ac(a2-3)Gal(b1-4)GlcNAc(b1-3)Gal(b1-4)GlcNAc
# How it was run: as §1
# [30] = biological target: Neu5Ac(a2-3)Gal(b1-4)GlcNAc(b1-3)Gal(b1-4)GlcNAc(b1-2)Man(a1-3)[Neu5Ac(a2-3)Gal(b1-4)GlcNAc(b1-3)Gal(b1-4)GlcNAc(b1-2)Man(a1-6)]Man(b1-4)GlcNAc(b1-4)GlcNAc
# How it was run: as §1
# [31] = biological target: Neu5Ac(a2-3)Gal(b1-4)GlcNAc(b1-3)Gal(b1-4)GlcNAc(b1-3)Gal(b1-4)GlcNAc
# How it was run: as §1
# [32] = biological target: Neu5Ac(a2-3)Gal(b1-4)GlcNAc(b1-3)Gal(b1-4)GlcNAc(b1-3)Gal(b1-4)GlcNAc(b1-2)Man(a1-3)[Neu5Ac(a2-3)Gal(b1-4)GlcNAc(b1-3)Gal(b1-4)GlcNAc(b1-3)Gal(b1-4)GlcNAc(b1-2)Man(a1-6)]GalNAc
# How it was run: as §1
# [33] = biological target: Neu5Ac(a2-3)Gal(b1-4)GlcNAc(b1-3)Gal(b1-4)GlcNAc(b1-3)GalNAc
# How it was run: as §1
# [34] = biological target: Neu5Ac(a2-3)Gal(b1-4)GlcNAc(b1-3)Gal(b1-4)GlcNAc(b1-3)[Neu5Ac(a2-3)Gal(b1-4)GlcNAc(b1-3)Gal(b1-4)GlcNAc(b1-6)]GalNAc
# How it was run: as §1
# [35] = biological target: Neu5Ac(a2-3)Gal(b1-4)GlcNAc(b1-3)Gal(b1-4)GlcNAc(b1-6)[Gal(b1-3)]GalNAc
# How it was run: as §1
# [36] = biological target: Neu5Ac(a2-3)Gal(b1-4)GlcNAc(b1-3)Gal(b1-4)[Fuc(a1-3)]GlcNAc
# How it was run: as §1
# [37] = biological target: Neu5Ac(a2-3)Gal(b1-4)GlcNAc(b1-3)GalNAc
# How it was run: as §1
binder,measurement,setting,value
B1,glycan array binding signal (z-score),[1],0.294
same,glycan array binding signal (z-score),[2],-0.47
same,glycan array binding signal (z-score),[3],-0.506
same,glycan array binding signal (z-score),[4],-0.135
same,glycan array binding signal (z-score),[5],-0.357
same,glycan array binding signal (z-score),[6],-0.524
same,glycan array binding signal (z-score),[7],-0.334
same,glycan array binding signal (z-score),[8],0.514
same,glycan array binding signal (z-score),[9],0.048
same,glycan array binding signal (z-score),[10],0.216
same,glycan array binding signal (z-score),[11],-0.429
same,glycan array binding signal (z-score),[12],0.765
same,glycan array binding signal (z-score),[13],-0.449
same,glycan array binding signal (z-score),[14],-0.285
same,glycan array binding signal (z-score),[15],-0.33
same,glycan array binding signal (z-score),[16],-0.533
same,glycan array binding signal (z-score),Neu5Ac(a2-3)Gal(b1-4)Glc,-0.031
same,glycan array binding signal (z-score),[17],-0.137
same,glycan array binding signal (z-score),[18],0.757
same,glycan array binding signal (z-score),[19],0.307
same,glycan array binding signal (z-score),[20],-0.559
same,glycan array binding signal (z-score),[21],-0.509
same,glycan array binding signal (z-score),[22],-0.373
same,glycan array binding signal (z-score),[23],0.146
same,glycan array binding signal (z-score),[24],0.157
same,glycan array binding signal (z-score),[25],-0.385
same,glycan array binding signal (z-score),[26],-0.583
same,glycan array binding signal (z-score),[27],0.067
same,glycan array binding signal (z-score),[28],-0.415
same,glycan array binding signal (z-score),[29],0.027
same,glycan array binding signal (z-score),[30],0.214
same,glycan array binding signal (z-score),[31],-0.363
same,glycan array binding signal (z-score),[32],0.52
same,glycan array binding signal (z-score),[33],0.073
same,glycan array binding signal (z-score),[34],0.253
same,glycan array binding signal (z-score),[35],-0.496
same,glycan array binding signal (z-score),[36],0.338
same,glycan array binding signal (z-score),[37],-0.705
